PubChem BioAssay AID1240 (Sanford-Burnham Center for Chemical Genomics, 2008)
In all, about 50,000 compounds went through this assay and about 800 (1.6%) showed an effect of 50% or more. The list shows a part of the results.

Target: Bcl-2-like protein 10 (Homo sapiens) (UniProt Q9HD36)
Assay: Phenotype converters, Bcl-B/TR3 peptide binding displacement, primary biochemical FP (AID 1240);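 note: 0% = Bcl-B with tracer peptide and DMSO and 100% = tracer peptide lacking Bcl-B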
Conditions: GST-Bcl-B / FITC-TR3 peptide fluorescence polarization; stronger effect = higher value; compound at 3.75 mg/L

Chain of UniProt Q9HD36 (Q9HD36 whole entry, looked up): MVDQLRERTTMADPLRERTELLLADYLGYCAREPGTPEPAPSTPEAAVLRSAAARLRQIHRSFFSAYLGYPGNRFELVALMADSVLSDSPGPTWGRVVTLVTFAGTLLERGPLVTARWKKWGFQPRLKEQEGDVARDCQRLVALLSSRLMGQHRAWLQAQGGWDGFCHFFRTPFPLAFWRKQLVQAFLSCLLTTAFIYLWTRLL

Structure (SMILES)	displacement
Cc1sc(NC(=O)/C=C/c2cccc(Cl)c2)nc1-c1ccccc1	-3%
Cc1ccc(Cl)cc1NC(=O)C(=O)NCc1cccnc1	-7.4%
COC(=O)c1sccc1NC(=O)c1ccc(Br)cc1	2.6%
CC(C)c1ccc(NC(=O)C(=O)NCCO)cc1	9.1%
Clc1ccccc1-c1noc(COc2ccc(Br)cc2)n1	5.1%
COc1cccc(C2Nc3ccc4ccccc4c3C3=C2C(=O)CC(C)(C)C3)c1OCC(=O)O (stereo unspecified)	30%
O=C1N2CN(C3CCCCC3)CN=C2SC1(CO)CO	-0.4%
Fc1cnc(NN=Cc2cccs2)nc1N1CCOCC1	-16.8%
O=c1oc2cc(OCc3c(F)c(F)c(F)c(F)c3F)ccc2cc1-c1ccccn1	10.5%
O=C(Nc1ccc(Cl)cc1)Nc1nnc(Cc2ccc(F)cc2)s1	2.3%
COC(=O)c1c(-c2ccc(Cl)cc2)csc1N	2.1%
O=C1ON=C(c2ccccc2)/C1=C\c1cccc(O)c1	-14.3%
COC(=O)C1=C(C)N(c2ccc(Cl)cc2)C(=O)/C1=C\c1ccco1	13.7%
COc1cc(OC)cc(C(=O)Nc2ccc3oc(-c4ccc(OC)c(Br)c4)nc3c2)c1	-3.3%
CCOC(=O)C1=C(C)OC(N)=C(C#N)C1c1ccc(OC)cc1OC (stereo unspecified)	4.1%
O=C(Nc1ccc(-c2ccccc2)cc1)c1ccc(Br)cc1	-3.5%
Cc1ccc(NS(=O)(=O)c2cccs2)cc1C	1.7%
C=CCOC(=O)C1=C(C)NC(=O)NC1c1ccc(Cl)cc1 (stereo unspecified)	0.6%
CCOc1ccc(C(=O)Nc2ccccc2C(=O)O)cc1	9.2%
COc1cc(C2Nc3ccccc3C(=O)N2c2ccc(F)cc2)cc(OC)c1OC (stereo unspecified)	9.6%
COc1ccc(CNC(=O)CN(c2ccc(C)cc2)S(=O)(=O)c2ccc(F)cc2)cc1	-2.3%
Cc1ccc(NC(=S)NC(=O)c2cccnc2)cc1Br	-6.8%
O=C(N/N=C/c1ccc(Br)cc1)c1cc(C2CC2)[nH]n1	-18.8%

Structure (SMILES)	displacement
CCc1nnc(NS(=O)(=O)c2ccc(N/C=C\C(=O)c3ccc4ccccc4c3)cc2)s1	12%
CC(C)Cn1ccc(=O)n(CC(C)C)c1=O	10.7%
CN(C)c1ccc(-n2nc3ccc4ccccc4c3n2)cc1	3.4%
CC(C)CC(NC(c1ccccc1)(c1ccccc1)c1ccccc1)C(=O)O (stereo unspecified)	8.9%
O=C(Nc1cccc2nsnc12)c1cc2ccccc2o1	23.9%
CCN1C(=O)c2cccc3c(S(=O)(=O)N(C)C)ccc1c23	6.6%
O=[N+]([O-])c1ccccc1NN=C1CCCC1	-6%
O=C(O)c1ccc(-c2nnc(-c3cccc(Br)c3)o2)cc1	-22.5%
CCOc1cc(/C=N/n2c(C)nnc2C)ccc1O	6.9%
Cc1ccc(Cl)cc1NC(=O)C(=O)NCCCO	-7.4%
COc1ccccc1N1C(=O)NC(=O)/C(=C\c2ccc(Br)cc2)C1=O	4.4%
Clc1cccc(/C=N/N=C/c2cccc(Cl)c2Cl)c1Cl	-1.5%
O=C(c1ccc(I)cc1)N1CCOCC1	11.8%
Cc1ccc(SCCNS(C)(=O)=O)cc1	3.9%
Cc1ccc(-c2cc(NC(=O)c3ccc(F)cc3)n[nH]2)cc1	14.7%
COC(=O)C1=NNC2C(=O)N(c3cccc(C(F)(F)F)c3)C(=O)C12 (stereo unspecified)	0.8%
c1ccc(-c2ccc(-c3nc(-c4cccnc4)no3)cc2)cc1	-2.8%
COc1cc(C(=O)N/N=C(\C)c2ccc(NC(=O)c3cccs3)cc2)cc(OC)c1OC	-7.9%
O=C(COc1ccc(Br)cc1)Nc1ccc(NC(=O)c2ccccc2)cc1	-3.3%
Cc1cccc(NC(=O)c2cc(-c3ccc(Br)cc3)nc3ccccc23)n1	13.6%
COc1cc(/C=C2\C(=O)N(c3ccc(S(N)(=O)=O)cc3)N=C2C)ccc1O	-32.2%
CCCc1ccc(OCC(=O)N/N=C\c2cc(OC)ccc2O)cc1	0.5%
Cc1ccc(OCCOCCN2CCC(C)CC2)c(Cl)c1	-13.1%

Structure (SMILES)	displacement
CCCCc1c(C)nc2ccc(OC)cc2c1Cl	-5.7%
Cc1cccc(N2C(=O)/C(=C/c3ccc4c(c3)OCO4)SC2=S)c1C	21.8%
Cc1cc(=O)oc2cc(OCC(=O)c3ccccc3)cc(OCC(=O)c3ccccc3)c12	-3.1%
Cc1ccc(C(=O)N/C(=C\c2cccs2)C(=O)N2CCCC2)cc1	2.5%
COc1ccc(N/C(N)=N\c2nc(C)cc(C)n2)c(OC)c1	-8.7%
CC1(c2ccccc2)C(C#N)=C(N)OC2=C1C(=O)CCC2 (stereo unspecified)	-1%
O=C1c2ccccc2C(=O)c2cc(Sc3ccccc3)ccc21	12.2%
N=C1S/C(=C\c2ccc(-c3ccccc3[N+](=O)[O-])o2)C(=O)N1c1ccc2c(c1)OCO2	-5.3%
Cc1ccc(N=C2NC(=O)/C(=C/c3ccccc3F)S2)cc1	-5.1%
CC(=O)Nc1cccc(OC2=NS(=O)(=O)c3ccccc32)c1	1.8%
COc1cccc(N2C(=O)CC(N3CCN(C(c4ccccc4)c4ccccc4)CC3)C2=O)c1 (stereo unspecified)	5.9%
CCCCOc1cccc(C(=O)Nc2ccc(CC)cc2)c1	-5.2%
Cc1ccc(Cl)cc1N1CCN(C(=O)C2C3CCC(C3)C2C(=O)O)CC1 (stereo unspecified)	-2.7%
COc1cccc(C(=O)NNC(=O)c2ccc(F)cc2)c1	-9.7%
O=C1CC(c2ccccc2)CC2=C1C(c1cccc([N+](=O)[O-])c1)Nc1ccc(C(=O)c3ccccc3)cc1N2 (stereo unspecified)	3.6%
Cc1ccc(N(CC(=O)NCc2ccccc2)S(C)(=O)=O)cc1Cl	-7.7%
Clc1cccc(CN2CCN(Cc3ccccn3)CC2)c1	-22%
COc1ccc(-c2nnc(N)s2)cc1OC	8.6%
COc1cc(C=Nc2ccc(N=Cc3cc(Br)c(O)c(OC)c3)cc2)cc(Br)c1O	16.3%
COC(=O)c1ccc(C2Nc3ccccc3NC3=C2C(=O)CC(c2ccccc2)C3)cc1 (stereo unspecified)	-17.5%
COc1ccc(C2=C/C(=C\c3cccc([N+](=O)[O-])c3)C(=O)O2)cc1	2.7%
COc1ccc(/C=C/C(=O)c2ccc([N+](=O)[O-])cc2)cc1	105%
CC1CCc2c(sc(NC(=O)C3CC4CCC3C4)c2C(=O)OC(C)C)C1 (stereo unspecified)	8.9%

Structure (SMILES)	displacement
COc1ccc(C2=NN(CN3C(=O)C(=O)c4ccccc43)C(c3ccccc3)C2)cc1 (stereo unspecified)	1.4%
O=c1/c(=C/c2cc([N+](=O)[O-])ccc2Cl)sc2nc3ccccc3n12	-7.5%
COc1cc(NC(=O)c2cc([N+](=O)[O-])ccc2Br)ccc1NC(=O)c1ccco1	26.5%
COc1ccc(Cl)cc1NC(=O)COc1cccc(C)c1	-8.5%
Cc1ccc(S(=O)(=O)N=C(Nc2ccccn2)c2ccccc2)cc1	11.1%
CN(C)S(=O)(=O)NCC(=O)NN=Cc1ccncc1	3.8%
C=CCn1c(COc2ccc3ccccc3c2)nc2ccccc21	-1.6%
Cc1ccc(/C(O)=C2\C(=O)C(=O)N(c3ccc(O)cc3)C2c2ccccc2F)cc1 (stereo unspecified)	-4.1%
O=C(N/N=C/c1cccs1)C1CC(=O)N(c2ccc(Cl)cc2)C1 (stereo unspecified)	-9.3%
COc1cc2ccccc2cc1C(=O)Nc1cccc([N+](=O)[O-])c1	9.6%
COc1ccc(/C=C2\C=C(c3ccc(C)cc3)OC2=O)cc1[N+](=O)[O-]	6.6%
CCOC(=O)c1c(-c2ccc(C)cc2C)csc1NC(=S)NC(=O)c1ccccc1	1.3%
Nc1nnc(Cc2ccc(F)cc2)s1	3.5%
CCCN(CCC)C(=O)c1ccccc1Br	1.4%
CCOC(=O)CCNC(=O)c1ccccc1Br	13.2%
CCOC(=O)c1ccc(NC(=O)C(CC)Oc2ccccc2)cc1 (stereo unspecified)	-1.3%
Cc1ccc(NC(=O)/C=C/c2ccc([N+](=O)[O-])cc2)cc1C	-6.8%
CCOC(=O)c1c(-c2ccccc2)csc1NC(=O)COc1ccccc1C	-3.9%
Cc1ccc(S(=O)(=O)Nc2ccc(S(=O)(=O)N3CCCCC3)cc2)cc1[N+](=O)[O-]	-4%
Cc1onc(-c2c(Cl)cccc2Cl)c1C(=O)Nc1ccc2c(c1)OCCO2	7.4%
Cc1nnc(N2C(=O)c3ccc([N+](=O)[O-])cc3C2=O)s1	-1.6%
O=[N+]([O-])c1ccc(C=NCC2OCCc3ccccc32)cc1 (stereo unspecified)	-4.4%
Cc1ccc(N2C(=O)C(Cl)=C(NCCO)C2=O)c(C)c1	9.2%

Structure (SMILES)	displacement
CCOC(=O)C1=C(C)N=c2s/c(=C/c3ccc(C(=O)OC)cc3)c(=O)n2C1c1ccc(OC(C)=O)cc1 (stereo unspecified)	9.3%
Cc1cc(/C=C2/NC(=O)NC2=O)c(C)n1-c1ccc(Cl)cc1	10.7%
O=C(COc1ccc(Cl)cc1)NNC(=O)C1COc2ccccc2O1 (stereo unspecified)	-5.2%
COC(=O)C1=C(C)NC(C)=C(C(=O)OC)C1c1cccc(Br)c1	7.5%
COc1ccccc1NCC(=O)n1nc(C)cc1C	-6.9%
CCOC(=O)C1=C(C)NC(SCC(N)=O)=C(C#N)C1c1cccc([N+](=O)[O-])c1 (stereo unspecified)	8.4%
Cc1ccc(OCC(=O)Nc2ccccc2CO)cc1	-9.2%
COc1cc(/C=N/NC(=O)Cc2n[nH]c(=O)[nH]c2=O)cc([N+](=O)[O-])c1O	-7.4%
CC(Sc1nnc(-c2cccnc2)o1)C(=O)c1ccccc1 (stereo unspecified)	7.9%
CCOc1ccc(N(CC(=O)Nc2cccc(C(F)(F)F)c2)S(C)(=O)=O)cc1	-4.2%
COc1ccccc1C(=O)NNC1=CC(=O)CC(C)(C)C1	14.2%
COc1cc(C2CC(=O)Nc3c2ccc2ccccc32)ccc1OC(=O)c1ccc(Cl)cc1 (stereo unspecified)	-6%
OC1(C(F)(F)F)CC(c2ccccc2)=NO1 (stereo unspecified)	-5.8%
Cc1cc(C=O)c(C)n1-c1ccc(Cl)cc1	7.7%
CC(=O)c1ccc(-n2c(C)ccc2-c2ccccc2)cc1	9.2%
Cc1c(NC(=O)/C=C/c2cn(-c3ccccc3)nc2-c2ccc(F)cc2)c(=O)n(-c2ccccc2)n1C	12.2%
O=[N+]([O-])c1ccc(Oc2cc(C(F)(F)F)ccc2Cl)cc1O	6.9%
CCCCOC(=O)c1ccc(NC(=S)NC(NC(=O)OCC)C(Cl)(Cl)Cl)cc1 (stereo unspecified)	-1.1%
CC(C)CNC(=O)C(=O)NCc1ccc(Cl)cc1Cl	8.2%
